{
  "source": "the supplement of paper PMC11417369",
  "note": "The list shows a part of the results.",
  "data": [
    {"system": "PF3D7_0420300 AP2 domain 1 (GST-tagged)", "test": "gcPBM binding intensity (ln(normalized median fluorescence intensity)); higher = stronger DNA binding", "summary_of_the_method": "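GST-tagged P. falciparum DNA-binding domains produced in E. coli were incubated for 1 h on an Agilent 4 × 180k array of primer-extended double-stranded 36-bp intergenic genomic probes with negative controls. Binding intensity is the highest Masliner-normalised natural-log median intensity across replicate spots of either probe orientation, with bound protein detected by Alexa488 anti-GST antibody at 488 nm.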", "values": [
      {"sequence": "TATGCTACATTATATGTACACACATATACATATATA [CACACA_site8199]", "gcPBM binding intensity (ln)": 9.49},
      {"sequence": "ATTTATACGTAATATGCATAAATATAAATATATATA [XGTACX_negctrl_site133]", "gcPBM binding intensity (ln)": 9.04},
      {"sequence": "TTAAAATTTTAAAAATTTTAATTTTACAAAAAAAAT [TGCATGCA_negctrl_site227]", "gcPBM binding intensity (ln)": 8.69},
      {"sequence": "TTTCTTTCTTTCTTTTTTTAAATATTTTTTAAAAAT [TGCATGCA_negctrl_site206]", "gcPBM binding intensity (ln)": 8.99},
      {"sequence": "AAATTAATGAAATATACACACATATATAAATATATA [CACACA_site4378]", "gcPBM binding intensity (ln)": 9.56},
      {"sequence": "AAATTTTTTAATTTTTCTCATTTAATTTAAAAATTA [GTGCAC_negctrl_site155]", "gcPBM binding intensity (ln)": 8.88},
      {"sequence": "AAATTAAAGATAAAAGTGCAAAATTATAAATTTATT", "gcPBM binding intensity (ln)": 9.34},
      {"sequence": "ATAAGCATCTGGATATGTACTTATTCCTTTAAAGAT [XGTACX_site6225]", "gcPBM binding intensity (ln)": 9.06},
      {"sequence": "AAAAGTATATATTCAGTGCATAGTCTTTAAATATAA [GTGCAC_site9522]", "gcPBM binding intensity (ln)": 9.19},
      {"sequence": "TATATATAACATTGTACACACAAAGAAATAATATTA [CACACA_site3035]", "gcPBM binding intensity (ln)": 9.66},
      {"sequence": "ATAAAAAAGCAACATCATATGTTTTTATAGAGTATT [CACACA_negctrl_site745]", "gcPBM binding intensity (ln)": 9.18},
      {"sequence": "TATTAAAAATATTATGTACACACATTTTAGATATTT [CACACA_site8549]", "gcPBM binding intensity (ln)": 9.34},
      {"sequence": "TAATAAGTACCTTTTGCATGTGGCACGCTTTTTTTT [TGCATGCA_site573]", "gcPBM binding intensity (ln)": 9.37},
      {"sequence": "TATTATATAACAAAAAGTACTTATAAGAAATATATA [XGTACX_site5467]", "gcPBM binding intensity (ln)": 9.16},
      {"sequence": "AAATGAATTATATAATATATATAAATAAATAAATAA [CACACA_negctrl_site359]", "gcPBM binding intensity (ln)": 9.16},
      {"sequence": "CTAAATATATAAAAAAGTACAAAATAAATAATAATT [XGTACX_site2442]", "gcPBM binding intensity (ln)": 9.63},
      {"sequence": "TATATATTATGACCACCACACACCTATACACATAAC [CACACA_site8773]", "gcPBM binding intensity (ln)": 9.76},
      {"sequence": "TATTTCTGATTATTTTGTACACATTATATATAATGC [XGTACX_site6990]", "gcPBM binding intensity (ln)": 9.25},
      {"sequence": "AATATAAACAGACACACACACATATAGATTTATATT [CACACA_site7382]", "gcPBM binding intensity (ln)": 10.1},
      {"sequence": "GGATAGATAATAGGGGGTACAAATATACATACATAT [XGTACX_site5089]", "gcPBM binding intensity (ln)": 9.69},
      {"sequence": "GAAAATAGAAAAAGCACACATATATTTTGGAATGTA [CACACA_site551]", "gcPBM binding intensity (ln)": 9.54},
      {"sequence": "TTTTAATGAAAACACACACACACATATATATATATA [CACACA_site5295]", "gcPBM binding intensity (ln)": 9.92},
      {"sequence": "TTATACATTTGTAAATAAATAGAACTGTATTTTTTT [TGCATGCA_negctrl_site397]", "gcPBM binding intensity (ln)": 8.95},
      {"sequence": "TATATACCGATATATACACACAAATACATAAGCTTC [CACACA_site6760]", "gcPBM binding intensity (ln)": 9.78},
      {"sequence": "CAAAATATTTTTATAACACACATATTTATAACGTGC [CACACA_site6659]", "gcPBM binding intensity (ln)": 9.41},
      {"sequence": "TTTTGATTGTTATTCGTATATTATTTTATGATTATA [CACACA_negctrl_site1593]", "gcPBM binding intensity (ln)": 9.48},
      {"sequence": "AATAATCATTTTCATAGTACGTATGATTAGAAAAAA [XGTACX_site2589]", "gcPBM binding intensity (ln)": 8.88},
      {"sequence": "ATATTTCATCTAGCTACACACATATAATAAATTATT [CACACA_site4094]", "gcPBM binding intensity (ln)": 9.53},
      {"sequence": "TTTTCAATATATAGAGCATGCGCATCCACAAATATG [TGCATGCA_site380]", "gcPBM binding intensity (ln)": 8.93},
      {"sequence": "TGCCAATTTTTAAAAACATGCATTATATAGAATAAA [TGCATGCA_site872]", "gcPBM binding intensity (ln)": 8.89},
      {"sequence": "AATGGAAAATTATTAACACACACATATAAATATATA [CACACA_site7899]", "gcPBM binding intensity (ln)": 9.88},
      {"sequence": "ATTAAAAGGGGGTTTACATGTGTGTGTGTAATATGG [TGCATGCA_negctrl_site293]", "gcPBM binding intensity (ln)": 10.2},
      {"sequence": "TACAACAATTTTTGCACACACCAAAACATAAAATAA [CACACA_site4964]", "gcPBM binding intensity (ln)": 9.73},
      {"sequence": "TATAAAACCCTACTGTTTCTTCTTTATTGATATATT [TGCATGCA_negctrl_site285]", "gcPBM binding intensity (ln)": 9.44},
      {"sequence": "AAAGTTTTTATACATACACACCTATAAATTAAGTGC [CACACA_site7198]", "gcPBM binding intensity (ln)": 9.38},
      {"sequence": "GAAAGAATAAAATAAACATGCAAATAAAACATAAAA [TGCATGCA_site471]", "gcPBM binding intensity (ln)": 9.75},
      {"sequence": "AATTGTAAATTGGGCACTTATAAAAATGAACAAATA [CACACA_negctrl_site1583]", "gcPBM binding intensity (ln)": 9.28},
      {"sequence": "TCATAAAGAACAAAGTGTACCTATATATTACATACA [XGTACX_site7595]", "gcPBM binding intensity (ln)": 9.21},
      {"sequence": "TAAATACACTGTAGCGCACACGGCCAAAAAAAAAAA [CACACA_site1818]", "gcPBM binding intensity (ln)": 9.41},
      {"sequence": "TACTATCTATACAATACACACAAAAAAAAAAAAATA [CACACA_site3981]", "gcPBM binding intensity (ln)": 9.69},
      {"sequence": "TTATTATCCTATATTTCTTTTCCTTCTTCAAAATTA [CACACA_negctrl_site1314]", "gcPBM binding intensity (ln)": 9.24},
      {"sequence": "TAATATCATTTATATTGTACTATAACAAAATCTATA [XGTACX_site7700]", "gcPBM binding intensity (ln)": 9.01},
      {"sequence": "TATGTCAATTTTCATACATGCGCATAATCTTTATTT [TGCATGCA_site807]", "gcPBM binding intensity (ln)": 9.41},
      {"sequence": "ATAAATAAGATACGTACACACATATACAAAATATAC [CACACA_site3661]", "gcPBM binding intensity (ln)": 9.95},
      {"sequence": "TTTCCATTATGATATAGTACATAAATATATGTAATA [XGTACX_site6992]", "gcPBM binding intensity (ln)": 9.02},
      {"sequence": "TTGTGTGTATGTATACATATATATATTGAGACGAAT [TGCATGCA_negctrl_site382]", "gcPBM binding intensity (ln)": 9.64},
      {"sequence": "AAAAAAAATATATAAACACACATATTTATATACTCA [CACACA_site4984]", "gcPBM binding intensity (ln)": 9.43},
      {"sequence": "ACATATAATAAAAAATGTACACACATAAGAAAATTT [XGTACX_site6153]", "gcPBM binding intensity (ln)": 9.81},
      {"sequence": "ACTATAAATATATAAATATATATATATATATATATA [GTGCAC_negctrl_site65]", "gcPBM binding intensity (ln)": 8.92},
      {"sequence": "ACTCTTAAAATGTATTGTACATAATTTTTACAAGGG [XGTACX_site6611]", "gcPBM binding intensity (ln)": 9.02},
      {"sequence": "AGGTAGTTCTGTATCACACACATATATATATATATA [CACACA_site2214]", "gcPBM binding intensity (ln)": 9.71},
      {"sequence": "TTTTTTTTTTTTACCTGTACATGTCAGCAAACTTTT [XGTACX_site1171]", "gcPBM binding intensity (ln)": 9.15},
      {"sequence": "GGAGAATAGTGGAAAACACACACGTTTGAGATATGG [CACACA_site1168]", "gcPBM binding intensity (ln)": 9.47},
      {"sequence": "CAAAAACGGAAGTGGTGTACCGATATTATATAAACA [XGTACX_site4962]", "gcPBM binding intensity (ln)": 9.51},
      {"sequence": "AACATTATAAGACACACACACACATATATATATATA [CACACA_site8259]", "gcPBM binding intensity (ln)": 10.1}
    ]}
  ]
}
